Assay results: PubChem BioAssay AID743279 (National Center for Advancing Translational Sciences (NCATS), 2014)
The whole screen tested about 360,000 compounds, of which about 17,000 (4.7%) were called active. Inconclusive means that the source gave no clear call. Such entries were picked first, then a sample of the others. Rule as the data show it: active = activity change below about -50%; inconclusive = mostly about -30% to -49%; inactive = weaker than that.

Assay: qHTS for Inhibitors of Inflammasome Signaling: IL-1-beta AlphaLISA Primary Screen
Settings: THP-1 LPS/ATP IL-1B secretion, 16 h; at 57.5 µM, hits give low values
Outline: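 Secreted IL-1B measured by AlphaLISA bead assay after 16 h compound exposure of THP-1 cells; compounds (final up to 57.5 uM) added 1 h before LPS (250 ng/mL) and ATP (1.25 mM) stimulation; lower signal means less secretion.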
% is scaled to controls: 0 for no effect and ±100 for the full control effect.

Activity change, inactive:
CN(C(=O)COC(=O)c1cccc(S(=O)(=O)N2CCCCC2)c1)C1CCS(=O)(=O)C1 (stereo unspecified) 1.6%
Cc1ccc(C)c(OCC(O)CN2CCC(C)CC2)c1C (stereo unspecified) 24.4%
COc1cc(/C=N/NC(=O)C2c3ccccc3Oc3ccccc32)ccc1O -12.4%
COC(=O)C(C(=O)OC)C1C=CCN(C(C)=O)C1 (stereo unspecified) 41.5%
Cc1cc(C)c(C#N)c(Oc2ccccc2Br)n1 35.9%
CCCCNC(=O)c1nc(-c2cc3ccccc3[nH]2)oc1-c1cccc(C(F)(F)F)c1 -3.38%
COc1cc(C(C)=O)ccc1OCC(=O)N1CCCC1c1ccc2c(c1)OCCCO2 (stereo unspecified) 2.34%
Cc1ccc(NC(=O)CCC(=O)c2ccc(Cl)s2)nc1 16.9%
CCN(CC)S(=O)(=O)c1ccc(NC(=O)C(OC)c2ccccc2)cc1 (stereo unspecified) 5.55%
COc1ccc(Br)cc1C(=O)Nc1cccc(NC(=O)c2ccco2)c1 -21.5%
CC12CCC3c4ccc(O)cc4CCC3C1CC(O)C2O (stereo unspecified) 0%
CC(=O)NC(Cc1ccccc1)C(=O)OCC(=O)c1ccc(Cl)cc1 (stereo unspecified) 15%
N#CCCC1(CCC#N)c2ccccc2C(=O)c2ccccc21 57.7%
CC1NS(=O)(=O)c2cc([N+](=O)[O-])ccc21 (stereo unspecified) 16.5%
CC(=O)Nc1cc(=O)c2cccnc2[nH]1 22.2%
CC(=O)c1c(N2CCN(c3ccccn3)CC2)nc(=S)n(-c2ccccc2)c1C -11.3%
Cc1ccc(N=CNc2ccc(C)cc2C)c(C)c1 45.4%

Activity change, inconclusive:
Cc1cc2cc(CN(CCCN3CCOCC3)C(=O)NC3CCCCC3)c(=O)[nH]c2cc1C -35.2%
Cc1cc(C)c(S(=O)(=O)Nc2ccc(-c3cn4ccccc4n3)cc2)c(C)c1 -36.3%
COc1ccc(NC(=O)COc2ccc(C(=O)c3ccc(F)cc3)cc2)cc1S(N)(=O)=O -43.2%
O=C(c1cc(COc2cccc3cnccc23)on1)N1CCCC(CCCO)C1 (stereo unspecified) -32.9%
O=C(C=Cc1cccc(Cl)c1)c1ccccc1 -39.3%
c1ccc(N2CCN(c3nc(NCc4ccco4)c4ccccc4n3)CC2)cc1 -34%
CCOc1cc(CNc2ccccc2)cc(Br)c1OCc1ccc(F)cc1 -35.6%
Clc1ccccc1NN(Cc1ccncc1)c1ccccc1Cl -31.7%
O=C(NC(c1ccccc1)c1ccc2ccccc2n1)C1CCN(Cc2cccc(C(F)(F)F)c2)CC1 (stereo unspecified) -37.1%
COc1ccccc1NC(=O)CSc1nnc(CNC(=O)COc2ccc(Cl)cc2)o1 -48.6%
CCOc1ccc(C(=O)NC(=S)Nc2cccc(NC(=O)c3ccco3)c2)cc1[N+](=O)[O-] -38.4%
Cc1ccc(CN(C(=O)c2csnn2)C(C(=O)NC2CCCC2)c2ccc(C)o2)cc1 (stereo unspecified) -33.2%
Cn1c(C(=O)N2CCN(Cc3ccc4c(c3)OCO4)CC2)cc2sccc21 -47.7%
CC1CCN(c2oc(-c3ccc(F)cc3)nc2C#N)CC1 -35.2%
Cc1cc(C)nc(S/C=C/C(=O)c2ccccc2F)n1 -50%
CC1(C)CC(=O)C(C2c3ccccc3Oc3ccccc32)C(=O)C1 -37.2%
CC1CCN(C(=O)CN(c2ccc(Cl)c(C(F)(F)F)c2)S(C)(=O)=O)CC1 -43.8%
Cc1cc2nc(N)sc2cc1[N+](=O)[O-] -49.5%
COc1ccc(Cn2c(CCC(=O)Nc3ccc(C)cc3)nc3cccnc32)cc1 -43.3%
COc1ccc(CCNS(=O)(=O)c2ccc(Br)cc2)cc1OC -44.6%
CC1CC(O)(CC(O)(c2ccccc2)c2ccccc2)C(C)CN1C (stereo unspecified) -31.6%
COc1ccccc1/C=C/C=N/N1CCN(Cc2ccc(Cl)cc2)CC1 -41.6%
Clc1ccc(Nc2ccc(-n3ccnc3)nn2)cc1Cl -41.7%
COC(=O)[C@]12CCCCC=C1N(CCc1ccc(OC)c(OC)c1)C(=O)[C@H](CC(=O)NCC1CCCCC1)C2 -45.7%
O=C(NCCN1C(=O)S/C(=C\c2ccc(Cl)cc2Cl)C1=O)C1=COCCO1 -34.4%
COc1cc2c(cc1OC)CN(C(=O)c1cc(S(=O)(=O)N3CCCCC3)ccc1Cl)CC2 -45.4%
Cc1cccc(N=C2NC(=O)/C(=C/c3cccnc3)S2)c1 -33.9%
O=C(NC(=S)Nc1cc(C(F)(F)F)ccc1N1CCOCC1)c1ccc(-c2cccc(Cl)c2)o1 -34%
COc1ccc(C(=O)Nc2ccc(N3CCN(C(=O)c4ccccc4)CC3)cc2)cc1[N+](=O)[O-] -42.8%

Activity change, active:
O=C1S/C(=C/c2ccccc2F)C(=O)N1CCN=C1NS(=O)(=O)c2ccccc21 -97.4%
O=c1oc2ccccc2cc1-c1csc(Nc2ccc(O)cc2)n1 -97.2%
COc1ccc(Cn2c(SCc3cc(C)ccc3C)nc3cc(OC)c(OC)cc3c2=N)cc1 -96.2%
CCN1CCN(c2ccc(S(=O)(=O)N3CCCCC3)cc2NC(=O)c2ccc(OC(F)F)cc2)CC1 -75.7%
CC1CCN(c2nc3nonc3nc2Nc2ccc(F)cc2)CC1 -76%
O=C(CCN1C(=O)/C(=C/c2ccccc2Cl)SC1=S)NC1C=CS(=O)(=O)C1 (stereo unspecified) -63.4%
Cc1ccc(NC(=O)CN(c2ccc(Cl)cc2)S(=O)(=O)c2cc([N+](=O)[O-])ccc2Cl)cc1 -98.6%
CN(C(=O)CSc1nnc(-c2ccc(F)cc2)c2ccccc12)C1CCS(=O)(=O)C1 (stereo unspecified) -90.7%
COC(=O)c1ccc2c(=O)[nH]c(CCl)nc2c1 -97.1%
O=C(Oc1ccc(Br)cc1C(=O)/C=C/c1ccccc1F)c1ccco1 -98.2%
